In PubChem BioAssay (NCI):
Several values for one entry are separate records, joined by “and”; a condition that tells them apart may be missing. Equal entries are not always repeated.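 Five compound concentrations were applied to cells in 96-well plates for 48 hours; endpoints were derived by simple linear interpolation of the resulting dose-response curve. GI50 = concentration required for 50% inhibition of growth. TGI marks complete inhibition of growth.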

System: NCI-H322M lung
Assay: NCI tumour cell line growth inhibition, 48 h

SMILES | TGI | GI50
Cc1ccc(NC(=O)C2C(=O)N(c3ccc(C)c(C)c3)C(=O)C2N=N)cc1C (stereo unspecified) | > 100 µM | –
COc1ccc(CCN=C2OCc3ccccc32)cc1OC | > 100 µM | –
O=C1C[C@H]2[C@@H](O1)[C@@H](O)CN1C(=O)c3ccccc3[C@H]21 | > 100 µM | –
O=c1cc(-c2ccccc2)[nH]c2c(S)cccc12 | > 100 µM | –
O=C(NC(=O)c1cn(CCNCCO)c(=O)[nH]c1=O)OCc1ccccc1 | > 100 µM | –
S=c1[nH]n2c(COc3cccc(OCc4nnc5sc(=S)[nH]n45)c3)nnc2s1 | > 100 µM | –
CC(=O)c1cc2c(o1)C(=O)c1ccccc1C2=O | 0.457 µM and 0.339 µM | 0.202 µM and 0.182 µM
CC#C[P+](c1ccccc1)(c1ccccc1)c1ccccc1 | 41.4 µM | –
O=C(CC(O)(C(F)(F)F)C(F)(F)F)c1cc(CC(=O)C(O)(C(F)(F)F)C(F)(F)F)cc(CC(=O)C(O)(C(F)(F)F)C(F)(F)F)c1 | 8.83 µM | –
Nc1nc2c(ncn2Cc2ccc(CO)cc2)c(=O)[nH]1 | > 100 µM | –
CCCC(O)C(NC(=O)CCl)C(=O)O (stereo unspecified) | > 100 µM | –
C[C@H]1C2Cc3cc(N)ccc3[C@@]1(C)CCN2CCc1ccccc1 | > 100 µM | –
Nc1nc(N)c(N=Nc2ccc([As](=O)(O)O)cc2)c(=O)[nH]1 | > 100 µM | –
CC(CC(=O)O)C(C(=O)O)C(=O)O (stereo unspecified) | > 100 µM | –
Cc1ccc(-c2c3c(n(C4OC(CO)C(O)C(O)C4O)c(=S)c2C#N)CC(C)(C)CC3=O)cc1 (stereo unspecified) | > 100 µM | –
Cc1ccc(Cl)cc1Nc1nc(C(F)(F)F)ccc1C(=O)N1CCN(c2cccc(Cl)c2)CC1 | > 100 µM | > 100 µM
COc1ccc(-c2oc(=O)ccc2-c2cc(OC)c(OC)c(OC)c2)cc1F | > 100 µM | 80.6 µM
COc1ccc(/C=N/n2c(-c3ccccc3)n[nH]c2=O)cc1 | > 100 µM | –
O=C(Nc1cc(Cl)ccc1Cl)c1cc2cccc(Cl)c2oc1=O | > 100 µM | –
CCCn1c(N)c(C(=O)N/N=C(/C)c2cc3cccc(OC)c3o2)sc1=S | > 100 µM | 52.2 µM
Nc1nccc2c1ccn2-c1ccc(NC(=O)c2ccc(N3CCOCC3)c(C(F)(F)F)c2)cc1 | 29.8 µM | 3.78 µM
Cc1ccc(C(=O)N/N=C(\N=Nc2ccccc2[N+](=O)[O-])c2ccc(N(C)C)cc2)cc1 | > 100 µM | –
CC1(C)OC(=C(C#N)C#N)C(C#N)=C1/C=C/c1ccncc1 | 13.5 µM | –
N=c1ccn2c(n1)OC1C(O)C(CO)OC12 (stereo unspecified) | > 1000 µM | > 100 µM
O=c1n(-c2ccccc2)c(=O)n2n1C1C=CC2C2C(C1)C2(Cl)Cl (stereo unspecified) | > 100 µM | –
Cc1cc(C)nc(NS(=O)(=O)c2ccc(NNC(=O)c3cccc4c(=O)c5ccccc5[nH]c34)cc2)n1 | > 100 µM | –
O=C(c1c(F)ccc(NS(=O)(=O)N2CC[C@@H](F)C2)c1F)c1c[nH]c2ncc(-c3cnc(C4CC4)nc3)cc12 | > 10 µM and 52.7 µM | 2.84 µM and 4.3 µM
Cc1ccc(-c2cc(-c3ccc(Cl)cc3)nc(/N=C3\C(=O)N(CN4CCOCC4)c4ccc(Cl)cc43)n2)cc1 | > 100 µM | –
CC(=O)OC1O[C@@H](C(C)(C)O)CC[C@@H]1[C@H]1CC[C@@]2(C)C3=C(CC[C@]12C)[C@@]1(C)C[C@@H](OC(=O)CC(C)(O)CC(=O)O)[C@H](OC(C)=O)C(C)(C)C1CC3 (stereo partly specified) | 31.3 µM | –
